Hit rate of the full screen: of about 410,000 compounds, about 530 (0.13%) were called active. This list was built around the results that the source calls inconclusive (neither active nor inactive); the mix of calls is not that of the screen. Calls follow the shape of the dose curve; as a rule, active = well fitted inhibition curve with a large enough effect; inconclusive = small, poorly fitted or top-dose-only effect, or another doubt; inactive = no such curve, though single readings can be large or run the other way. A potency beside an inconclusive call is a rough fit, not a confirmed value.
test: qHTS of GLP-1 Receptor Inverse Agonists: Cytotox Screen; settings: HEK293 cAMP-luciferase reporter cells, luminescence, 24 h; activity change, negative = inhibition: at 38.3 µM (top of the series) unless noted
Summary of the method: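 Luminescence readout: signal drop marks cytotoxicity. Plated cells grew 12 h at 37 °C, 5% CO2, received 23 nL compound for 24 h, then got luciferase reagent, read after 12 min at RT.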
% is scaled to controls: 0 for no effect and ±100 for the full control effect; potency is read from the fitted curve at half-maximal effect.

SMILES	Potency	activity change, negative = inhibition
Fc1ccccc1COc1ccc(/C=N/NC(=S)NCc2ccccc2)cc1	inconclusive: 28.2 µM [inhibitor, single point]	
COc1ccc(C(=O)N2CCN(c3ccc([N+](=O)[O-])c(NCCc4ccc(OC)c(OC)c4)c3)CC2)cc1		inactive: 1.59% [at 1.53 µM]
CCOC(=O)c1c(C)[nH]c(C(=O)COC(=O)/C=C/c2ccc(O)c(OC)c2)c1C	inconclusive: 7.94 µM [inhibitor, partial curve, poor fit]	
O=C(NN1CC(C(=O)OCc2ccc(Cl)cc2Cl)CC1=O)c1ccccc1 (configuration not stated)	inconclusive: 28.2 µM [inhibitor, single point]	
COc1ccc(CCNc2oc(COc3cccc(C)c3)nc2C#N)cc1OC	inactive	
O=C(CN1C(=O)NC2(CCCCCC2)C1=O)c1ccccc1	inconclusive: 0.501 µM [inhibitor, full curve, poor fit]	
CCN(CC)CCNC(=O)c1ccc(NC(=O)c2cc(-c3ccco3)nc3ccccc23)cc1	inconclusive: 28.2 µM [inhibitor, single point]	
COc1ccc(C2=NOC(CNC(N)=S)C2)cc1 (configuration not stated)	inactive	
CC(=O)c1ccc(N2CCC(c3cc(-c4ccc(Cl)cc4Cl)n[nH]3)CC2)c([N+](=O)[O-])c1	inconclusive: 8.91 µM [inhibitor, partial curve, poor fit]	
Cc1cc(NC(=O)NC(=O)c2ccccc2NC(=O)CN)ccc1Oc1ncc(Br)cn1	inconclusive: 1 µM [inhibitor, full curve]	
COc1ccc(C)cc1NC(=O)Cn1cc(S(=O)(=O)N2CCC(C)CC2)c2ccccc2c1=O	inactive	
CCCC(=O)NC(c1ccccc1Cl)c1c(O)ccc2ccccc12 (configuration not stated)	inconclusive: 20 µM [inhibitor, partial curve, poor fit]	
COc1ccc(N2CCN(C(=O)c3cccc(Br)c3)CC2)c([N+](=O)[O-])c1	inactive	
O=[N+]([O-])c1cc(/C=N/Nc2nc3ccccc3[nH]2)c(O)cc1O	inconclusive: 12.6 µM [inhibitor, partial curve, poor fit]	
COC(OC)C1(CCc2ccccc2)NC(=O)NC1=O (configuration not stated)	inactive	
CCCC1=Nc2cc(C(=O)NC3CCCCC3)ccc2Sc2ccc(C)cc21	inconclusive: 0.708 µM [inhibitor, full curve]	
COC(=O)COc1ccc(NS(=O)(=O)c2cccc([N+](=O)[O-])c2)cc1	inactive	
CC(C)COc1ccc(C(=O)N(CC(=O)Nc2ccccc2C(F)(F)F)Cc2ccco2)cc1	inconclusive: 6.31 µM [inhibitor, partial curve]	
Cc1cc(NC(=O)CSc2nc3cc(Cl)ccc3o2)no1	inconclusive: 2.51 µM [inhibitor, full curve]	
COc1ccc(OC)c(CN2CCN(c3ccc(S(=O)(=O)N4CCCC4)cn3)CC2)c1	inconclusive: 28.2 µM [inhibitor, single point]	
Clc1ccc(CSc2nncn3c2cc2occc23)cc1	inactive	
CN1CCN(c2ccccc2NC(=O)c2ccc([N+](=O)[O-])o2)CC1	inconclusive: 28.2 µM [inhibitor, single point]	
O=C(Nc1nc(-c2ccccc2Cl)cs1)c1cccnc1	inactive	

SMILES	Potency	activity change, negative = inhibition
COc1cc(C(=O)N2CCN(c3ccccc3OC)CC2)c([N+](=O)[O-])cc1OC	inconclusive: 12.6 µM [inhibitor, single point]	
O/N=C(/c1ccc(F)cc1)C1CC1c1c(F)cccc1Cl (configuration not stated)	inconclusive: 14.1 µM [inhibitor, single point]	
CCN(c1ccccc1)S(=O)(=O)c1ccc(NC(=O)c2nc(S(C)(=O)=O)ncc2Cl)cc1	inconclusive: 1 µM [inhibitor, full curve, poor fit]	
S=C(NCc1ccccn1)Nc1ccc(Cl)cc1	inconclusive: 28.2 µM [inhibitor, single point]	
Cc1c(/C=N/Nc2nc3ccccc3[nH]2)c2ccccc2n1C	inconclusive: 28.2 µM [inhibitor, single point]	
Nc1cc(=O)nc(SCC(=O)Nc2ccccc2)n1CCc1ccccc1	inactive	
COc1cc2c(cc1OC)C(C)N(C(=O)c1cc(C)on1)CC2 (configuration not stated)	inconclusive: 1.12 µM [inhibitor, full curve, poor fit]	
O=S(=O)(c1ccc(SCCOc2ccc(Cl)cc2)nc1)N1CCCC1	inconclusive: 20 µM [inhibitor, single point]	
CCOc1ccccc1CN1CCN(CCCn2cccn2)CC1CCO (configuration not stated)		inconclusive: -30.4% [inhibitor]
Cc1cccc(C)c1Nc1nnc(SC(C)C(=O)Nc2c(C)n(C)n(-c3ccccc3)c2=O)s1 (configuration not stated)	inconclusive: 12.6 µM [inhibitor, single point]	
Clc1cccc(CN2CCC(Cc3ccccc3)CC2)c1	inactive	
Cc1ccc(S[C@@H](CCN2CC[C@H](C(C)(C)C)CCC2=O)c2ccccc2)cc1	inactive	
Cn1c(=S)c2[nH]c(SCCC(C)(C)C)nc2n(C)c1=O	inconclusive: 1 µM [inhibitor, full curve, poor fit]	
N#C/C(=C/c1ccc(N2CCCCCC2)o1)c1ccc(Cl)cc1	inconclusive: 8.91 µM [inhibitor, partial curve, poor fit]	
COc1cccc(Cn2c(C(C)n3c(-c4cnccn4)nc4ccccc43)nc3ccccc32)c1 (configuration not stated)	inconclusive: 14.1 µM [inhibitor, partial curve, poor fit]	
NS(=O)(=O)c1ccc(CCNC(=O)c2ccc(C#CC3(O)CCCCC3)cc2)cc1	inconclusive: 28.2 µM [inhibitor, single point]	
Oc1cccc(C(O)CNCc2ccc(-c3ccccc3)cc2)c1 (configuration not stated)	inconclusive: 28.2 µM [inhibitor, single point]	
CCOC(=O)C1=C(N)Oc2cc(O)ccc2C1c1ccc(C)cc1 (configuration not stated)	inconclusive: 20 µM [inhibitor, single point]	
CN1CCN(c2ccc([N+](=O)[O-])cc2C(=O)c2ccc(Br)cc2)CC1	inconclusive: 14.1 µM [inhibitor, single point]	
O=[N+]([O-])c1ccc(N=Nc2ncc[nH]2)cc1	active: 5.62 µM	
CN(c1ccccc1)S(=O)(=O)c1cccc(NC(=O)CSc2n[nH]c(N)n2)c1	inactive	
COc1ccc2[nH]c(-c3cccc(F)c3)cc(=O)c2c1	inconclusive: 0.316 µM [inhibitor, full curve, poor fit]	
COc1cc(NC(C)CCCN)c2ncccc2c1Oc1ccccc1 (configuration not stated)	inconclusive: 28.2 µM [inhibitor, single point]	

SMILES	Potency	activity change, negative = inhibition
O=C(CCC(=O)N1CCOc2ccc(Cl)cc21)NCCCN1CCN(Cc2ccccc2)CC1	inactive	
COC(=O)c1cc2c(-c3ccccc3)c(C)c3ccccn3c-2c1C(=O)OC	inconclusive: 31.6 µM [inhibitor, single point]	
Cc1ccc(-c2nc3ccc(Br)cn3c2Cc2cccc(F)c2)cc1	inactive	
CCOC(=O)c1cccc(NC(=O)CN(C)S(=O)(=O)c2cnc[nH]2)c1	inactive	
CC(=O)Nc1cccc(-c2csc(Nc3ccc(Cl)cn3)n2)c1	inconclusive: 31.6 µM [inhibitor, partial curve, poor fit]	
CN(Cc1ccccc1)C(=O)c1nc[nH]c1C(=O)N1CCc2ccccc2C1	inconclusive: 28.2 µM [inhibitor, single point]	
CCOC(=O)C[C@H]1c2ccccc2S(=O)(=O)N1c1ccccc1	inconclusive: 3.55 µM [inhibitor, full curve, poor fit]	
Cc1cccc(-c2n[nH]c(=S)n2/N=C/c2cccs2)c1	inconclusive: 14.1 µM [inhibitor, partial curve, poor fit]	
COc1ccc2nc3c(cc2c1)c(NC(=O)CC(C)C)nn3CC(C)C	inactive	
COc1cccc(CNc2ncc(-c3ccccc3)n2C)c1	inconclusive: 15.8 µM [inhibitor, partial curve, poor fit]	
O=C1C=C(Nc2cccc3cccnc23)c2ccccc2C1=O	inactive	
CCc1ccccc1OCC(=O)Nc1nc(-c2cccnc2)cs1	inconclusive: 3.55 µM [inhibitor, full curve, poor fit]	
Cc1ccccc1NC(=O)Cc1nc(COC(=O)c2ccc(NC(N)=O)cc2)cs1	inconclusive: 28.2 µM [inhibitor, single point]	
COc1ccc(-c2[nH]c3ccccc3c2SCCNC(=O)c2cc3ccccc3oc2=O)cc1	inactive	
COc1cccc(N2CCN(C(=O)c3cc4c(s3)-c3ccccc3OC4)CC2)c1	inconclusive: 11.2 µM [inhibitor, single point]	
CCN(CC)C(=O)c1sc2c(c1C)c(=O)n(CCc1ccccc1)c(=O)n2Cc1cc(C)ccc1C	inactive	
CCN1CCN(C(c2cccs2)C(C)NS(=O)(=O)c2ccc(Br)cc2)CC1 (configuration not stated)	inconclusive: 31.6 µM [inhibitor, single point]	
c1ccc(CN=C2NN=C(c3cc4ccccc4o3)CS2)cc1	inactive	
Cc1cc(C(=O)N/N=C/c2ccc(Cl)c([N+](=O)[O-])c2)c(C)n1-c1ccc(F)cc1	inconclusive: 1.78 µM [inhibitor, partial curve, poor fit]	
NC(=S)NN=Cc1nccc2ccccc12	inconclusive: 1 µM [inhibitor, full curve, poor fit]	
Cc1ccc2cc(CN(Cc3ccccc3)Cc3nnnn3C3CCCC3)c(=O)[nH]c2c1	inconclusive: 12.6 µM [inhibitor, partial curve, poor fit]	
